Assay results as given in patent publication US20140314857A1, “FORMULATIONS FOR ENHANCED BIOAVAILABILITY OF ZANAMIVIR” (priority 2012, published 2014).
Where “and” joins values, the source holds several entries; their conditions need not be identical. Identical values can stand only once. This continues a long series; more values of the same kind are listed elsewhere.

Test: Intravenous and intraduodenal bioavailability of zanamivir from three formulations (Example 5)
Conditions: individual rats
From the text: Male Sprague-Dawley rats (Hilltop Labs), 3 animals per treatment group, 250-350 grams in weight, were fitted with a jugular vein cannula (JVC). Animals intended for intraduodenal dosing were also fitted with one or more intraduodenal cannula (IDC) and those intended for intravenous dosing were fitted with a second JVC. Food was withheld from the animals for a minimum of twelve hours prior to test article administration and was returned approximately four hours post-dose. Water was supplied ad libitum.
Intraduodenal doses composed of 1.5 mg of zanamivir and varying amounts of an enhancer (glycerol or Capmul MCM L8) were injected directly into the duodenum via the IDC. Intravenous dosing was conducted by the injection of 1.5 mg of zanamivir in 200 μL of PBS through a JVC. For some experiments, the absorption enhancer was administered intraduodenally 2 hr prior to administering 1.5 mg of zanamivir in PBS through a second IDC. Each intraduodenal dose was followed with the introduction of a small air bubble (˜10 μL) in the cannula followed by a flush of 125 μL of PBS to ensure the dose was given in full. The volume of PBS used for cannula flush was consistent across the treatment groups. The cannula was tied to prevent the PBS remaining in the cannula from entering the duodenum.
Blood samples collected via the JVC, approximately 400 μL each, were obtained at 2 min, 5 min, 15 min, 30 min, 60 min, 90 min, and 120 min, with sodium heparin used as an anti-coagulant. Each sample was placed into a chilled tube containing the anticoagulant and kept on ice until centrifugation at 4° C., 3,000×g, for 5 min. The plasma supernatants were stored at −70° C. until LC-MS analysis.
Dosing solution samples were assayed by LC-MS/MS using electrospray ionization. The chromatographic system consisted of Perkin Elmer series 200 micropumps and autosampler equipped with a Waters Atlantic® HILIC Silica 3 μM, 2.1×50 mm column. The mass spectrometer was a PE Sciex API 4000 with electrospray interface in multiple reaction monitoring mode. […] Stock solutions (1 mg/mL zanamivir) were prepared in water. Standards (eight concentrations) were prepared in the appropriate matched matrix (HBSSg or Sprague-Dawley rat plasma containing sodium heparin) and diluted 50-fold with methanol. Experimental samples were treated identically.
Standards and samples were prepared in Sprague Dawley rat plasma containing sodium heparin as an anticoagulant. An eight-point calibration curve was prepared at concentrations of 1000, 750, 500, 250, 100, 50, 25, and 10 ng/mL by serial dilution. Standard samples were treated identically to the study samples.
Plasma samples were extracted by protein precipitation in methanol.
In this example, the bioavailability of Zanamivir was evaluated after intravenous and intraduodenal doses in male Sprague-Dawley rats. The test compound was dosed at 1.5 mg/animal through intravenous and intraduodenal routes from different formulations. Plasma levels were determined by LC-MS/MS analysis. Pharmacokinetic parameters were estimated by a non-compartmental model using WinNonlin v4.1 software.

With CC(=O)NC1C(NC(=N)N)C=C(C(=O)O)OC1C(O)C(O)CO (stereo not drawn) [Zanamivir, 5-acetamido-4-guanidino-6-(1,2,3-trihydroxypropyl)-5,6-dihydro-4H-pyran-2-carboxylic acid] the Plasma concentration (ID 1.5 mg/animal, Capmul MCM L8 50 µL, Ex.5, 0.25 hr) was 2680 ng/mL and 3520 ng/mL and 6850 ng/mL, the Plasma concentration (ID 1.5 mg/animal, Capmul MCM L8 50 µL, Ex.5, 0.5 hr) was 1950 ng/mL and 2420 ng/mL and 4370 ng/mL and the Plasma concentration (ID 1.5 mg/animal, Capmul MCM L8 50 µL, Ex.5, 0.83 hr) was 4560 ng/mL and 4840 ng/mL and 12300 ng/mL. For the same compound, the Plasma concentration (ID 1.5 mg/animal, Capmul MCM L8 50 µL, Ex.5, 1.0 hr) was 644 ng/mL and 898 ng/mL and 1710 ng/mL, the Plasma concentration (ID 1.5 mg/animal, Capmul MCM L8 50 µL, Ex.5, 1.5 hr) was 300 ng/mL and 472 ng/mL and 962 ng/mL and the Plasma concentration (ID 1.5 mg/animal, Capmul MCM L8 50 µL, Ex.5, 2.0 hr) was 147 ng/mL and 193 ng/mL and 482 ng/mL. The Plasma concentration (ID 1.5 mg/animal, Glycerol 50 µL, 0.25 hr) was 737 ng/mL and 986 ng/mL, the Plasma concentration (ID 1.5 mg/animal, Glycerol 50 µL, 0.5 hr) was 659 ng/mL and 755 ng/mL and the Plasma concentration (ID 1.5 mg/animal, Glycerol 50 µL, 0.83 hr) was 77.1 ng/mL and 105 ng/mL. For the same compound, the Plasma concentration (ID 1.5 mg/animal, Glycerol 50 µL, 1.0 hr) was 49.2 ng/mL and 797 ng/mL and 400 ng/mL, the Plasma concentration (ID 1.5 mg/animal, Glycerol 50 µL, 1.5 hr) was 85.1 ng/mL and 71 ng/mL and the Plasma concentration (ID 1.5 mg/animal, Glycerol 50 µL, 2.0 hr) was 65.3 ng/mL and 65.6 ng/mL. For the same compound, the Plasma concentration (ID 1.5 mg/animal, PBS 50 µL, 0.25 hr) was 105 ng/mL and 139 ng/mL and 43.9 ng/mL, the Plasma concentration (ID 1.5 mg/animal, PBS 50 µL, 0.5 hr) was 186 ng/mL and 159 ng/mL and 56.4 ng/mL and the Plasma concentration (ID 1.5 mg/animal, PBS 50 µL, 0.83 hr) was 60.2 ng/mL and 25.2 ng/mL and 30.7 ng/mL. For the same compound, the Plasma concentration (ID 1.5 mg/animal, PBS 50 µL, 1.0 hr) was 117 ng/mL and 97.9 ng/mL and 44.2 ng/mL, the Plasma concentration (ID 1.5 mg/animal, PBS 50 µL, 1.5 hr) was 82 ng/mL and 41.6 ng/mL and the Plasma concentration (ID 1.5 mg/animal, PBS 50 µL, 2.0 hr) was 42.6 ng/mL and 53.4 ng/mL. The Plasma concentration (ID 1.5 mg/animal, PBS, 50 µL blank glycerol -2 hr, 0.25 hr) was 58.1 ng/mL and 58.9 ng/mL, the Plasma concentration (ID 1.5 mg/animal, PBS, 50 µL blank glycerol -2 hr, 0.5 hr) was 77.5 ng/mL and 81.8 ng/mL and 39.6 ng/mL and the Plasma concentration (ID 1.5 mg/animal, PBS, 50 µL blank glycerol -2 hr, 0.83 hr) was 58.1 ng/mL and 43.2 ng/mL. For the same compound, the Plasma concentration (ID 1.5 mg/animal, PBS, 50 µL blank glycerol -2 hr, 1.0 hr) was 45.7 ng/mL and 95.8 ng/mL and 49.5 ng/mL, the Plasma concentration (ID 1.5 mg/animal, PBS, 50 µL blank glycerol -2 hr, 1.5 hr) was 26.9 ng/mL and 78.2 ng/mL and 37.3 ng/mL and the Plasma concentration (ID 1.5 mg/animal, PBS, 50 µL blank glycerol -2 hr, 2.0 hr) was 43.7 ng/mL and 76.7 ng/mL and 33.9 ng/mL. For the same compound, the Plasma concentration (IV 1.5 mg/animal, Normal Saline, Ex.5, 0.033 hr) was 22900 ng/mL and 24600 ng/mL, the Plasma concentration (IV 1.5 mg/animal, Normal Saline, Ex.5, 0.25 hr) was 11000 ng/mL and 10800 ng/mL and the Plasma concentration (IV 1.5 mg/animal, Normal Saline, Ex.5, 0.5 hr) was 6630 ng/mL and 6120 ng/mL. For the same compound, the Plasma concentration (IV 1.5 mg/animal, Normal Saline, Ex.5, 1.0 hr) was 2620 ng/mL and 2040 ng/mL, the Plasma concentration (IV 1.5 mg/animal, Normal Saline, Ex.5, 1.5 hr) was 1050 ng/mL and 692 ng/mL and the Plasma concentration (IV 1.5 mg/animal, Normal Saline, Ex.5, 2.0 hr) was 665 ng/mL and 452 ng/mL.
